From PMC5519724 come the findings set out here.

Sequences of proteins named here, by UniProt entry; tags and fusion partners are left off. A change or cut given only in a name is not applied to a line headed by its entry.
UniProt P03407: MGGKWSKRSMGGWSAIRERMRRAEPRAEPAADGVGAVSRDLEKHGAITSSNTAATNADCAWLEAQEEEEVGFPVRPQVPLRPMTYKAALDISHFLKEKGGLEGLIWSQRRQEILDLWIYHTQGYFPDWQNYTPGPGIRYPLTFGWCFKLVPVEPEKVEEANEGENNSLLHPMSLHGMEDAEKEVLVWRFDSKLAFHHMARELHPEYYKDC
UniProt P60520: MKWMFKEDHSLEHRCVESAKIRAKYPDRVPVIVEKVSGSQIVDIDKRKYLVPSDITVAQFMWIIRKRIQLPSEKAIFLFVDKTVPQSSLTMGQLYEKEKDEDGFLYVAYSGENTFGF
UniProt O95166: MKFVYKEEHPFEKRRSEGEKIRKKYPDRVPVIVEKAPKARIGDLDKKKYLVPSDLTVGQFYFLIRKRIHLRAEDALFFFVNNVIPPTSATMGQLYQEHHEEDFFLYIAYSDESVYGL

Results are given in words; binding and its absence hold for the method and conditions named. For some of these results: Binding seen in cells or lysates may run through a third protein. Some results given as binding are weak or reduced against the parent protein; the word gives no strength.

Assay [1] deals with Nef-DsRed (HIV-1 Nef fused to DsRed) (HIV-1) (UniProt P03407). The assay is described as follows: co-IP.
Assay [2] addresses Golgi-associated ATPase enhancer of 16 kDa/GABARAP-like 2 (GATE-16/GABARAPL2), endogenous (human (endogenous in HEK293)) (UniProt P60520). The assay is described as follows: co-IP; reverse IP: lysate of HEK293 cells stably expressing Nef-DsRed; IP with anti-[…]2, anti-GABARAP, anti-[…]1 or anti-LC3B antibody coupled to agarose beads; blot with anti-DsRed.
Assay [3] deals with γ-amino-butyric acid receptor-associated protein (GABARAP), endogenous (human (endogenous in HEK293)) (UniProt O95166). The description is as above.
The target of assay [4] is YFP-GABARAP (human) (UniProt O95166). In words: co-IP; reciprocal: lysate of HEK293 cells stably expressing Nef-DsRed and transfected with YFP or YFP-ATG8 plasmids; IP with anti-YFP (anti-GFP) antibody coupled to agarose beads; blot with anti-DsRed.
Assay [5] addresses YFP-GABARAPL2 (human) (UniProt P60520). The description is as above.
Assay [6] addresses recombinant HIV-1 Nef (SF2) with C-terminal hexahistidine tag (HIV-1 (SF2)) (UniProt P03407). The assay is described as follows: pull-down; 50 μM purified Nef immobilised on NHS-activated Sepharose 4 Fast Flow by amine coupling; 25 μM purified ATG8 or mutant in 200 μl binding buffer, 4 h at 4 °C; washed three times with 1x PBS; eluted with 50 mM glycine pH 2.3; SDS-PAGE and CBB staining; uncoupled Sepharose as control; both purified.

The target of assay [7] is Nef-DsRed (HIV-1 Nef fused to DsRed) (HIV-1) (UniProt P03407). In words: co-IP; lysate of HEK293 cells stably expressing Nef-DsRed and transfected with YFP or YFP-ATG8 plasmids; IP with anti-DsRed antibody coupled to agarose beads; blot with anti-YFP.

In the case of “γ-amino-butyric acid receptor-associated protein (GABARAP), endogenous (from UniProt O95166 1-117)”, in assay [1], the binding entry was “binds”.

Turning to “Nef-DsRed (HIV-1 Nef fused to DsRed) (from UniProt P03407)”, the binding entry in assay [2], in assay [3], in assay [4] and in assay [5] was “binds” in each case.

Consider “recombinant human LC3A (from UniProt Q9H492 1-121)”, for which the binding result in assay [6] is “no binding (tested: 25 μM)”.

Regarding YFP-GABARAP (from UniProt O95166 1-117), the binding result in assay [7] is listed as “binds”.

Turning to “YFP-GABARAPL2 (from UniProt P60520 1-117)”, the binding entry in assay [7] is on record as “binds”.

With “Golgi-associated ATPase enhancer of 16 kDa/GABARAP-like 2 (GATE-16/GABARAPL2), endogenous (from UniProt P60520 1-117)”, the binding entry in assay [1] was “binds”.

On to “GABARAP(S53D/F62K) (from UniProt O95166 1-117)”, for which the binding result in assay [6] is listed as “no binding (tested: 25 μM)”.
